According to the supplement of paper PMC12217912:
This is one part of the list. Sequences were assembled here from the parent chain. Inactive controls read about 0.05.

B1: TEV protease; numbered along this chain (parent)
chain: MGESLFKGPRDYNPISSSICHLTNESDGHTTSLYGIGFGPFIITNKHLFRRNNGTLVVQSLHGVFKVKDTTTLQQHLVDGRDMIIIRMPKDFPPFPQKLKFREPQREERICLVTTNFQTKSMSSMVSDTSCTFPSGDGIFWKHWIQTKDGQCGSPLVSTRDGFIVGIHSASNFTNTNNYFTSVPKNFMELLTNQEAQQWVSGWRLNADSVLWGGHKVFMVKPEEPFQPVKEATQL

Variants of: B1
Test: raw area under fraction-flipped curve 0-4 h after induction (AUC4h, not background-subtracted), DNA-recorder readout of cleavage of the substrate (dimensionless); higher = more cleavage of the substrate by the protease variant
Settings: temperature: 34 °C; time window: 0-4 h after rhamnose induction
Protocol: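 In vivo DNA recorder in E. coli TOP10(DE3) ΔrhaA at 34 °C. Each TEVp single-site mutant (parent TEVp 0) is paired with a single-site variant of the 7-mer TEVs (canonical ENLYFQ|S). The substrate sits between flexible linkers in a Bxb1-sfGFP-TEVs-SsrA fusion, so cleavage stabilises Bxb1 and speeds flipping of a recombination array, read by NGS. The value is the raw area under the fraction-flipped curve over 0-4 h after rhamnose induction (AUC4h), with ≥20 reads per time point. It is not background-subtracted; inactive controls average about 0.047.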
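Also: Bxb1 expression induced with 0.2% (w/v) L-rhamnose at OD600 near 0.5, cultures sampled hourly, flipped fraction per protease–substrate barcode pair counted by paired-end Illumina sequencing.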

Variant | area with substrate ANLYFQS | area with substrate CNLYFQS | area with substrate DNLYFQS | area with substrate FNLYFQS | area with substrate GNLYFQS | area with substrate HNLYFQS | area with substrate INLYFQS | area with substrate KNLYFQS | area with substrate LNLYFQS | area with substrate NNLYFQS | area with substrate PNLYFQS | area with substrate SNLYFQS | area with substrate TNLYFQS | area with substrate WNLYFQS | area with substrate YNLYFQS | area with substrate MNLYFQS | area with substrate RNLYFQS | area with substrate QNLYFQS | area with substrate VNLYFQS
N13V | 0.0674 | 0.0633 | 0.0771 | 0.0526 | 0.061 | 0.0647 | 0.058 | 0.065 | 0.0859 | 0.0674 | 0.075 | 0.0486 | 0.0692 | 0.0533 | 0.0582 | – | – | – | –
N13W | 0.0643 | 0.0728 | 0.0764 | – | – | 0.0702 | 0.0659 | 0.0634 | 0.0588 | 0.0589 | 0.086 | 0.0759 | 0.0637 | 0.0495 | – | 0.0691 | 0.0287 | – | –
P14I | 0.074 | 0.0658 | 0.0764 | 0.065 | 0.0614 | 0.0556 | 0.0587 | – | – | 0.052 | 0.0615 | 0.0426 | 0.0692 | 0.0645 | 0.0573 | 0.0578 | – | 0.0642 | 0.0577
S16I | 0.0541 | 0.0695 | – | 0.0589 | 0.0622 | – | 0.0196 | 0.0651 | 0.0496 | 0.0755 | 0.0597 | 0.0887 | 0.0588 | 0.0543 | 0.0553 | – | 0.0626 | – | 0.0602
S16L | 0.0687 | 0.0642 | 0.0695 | 0.0864 | – | 0.0777 | 0.0495 | – | 0.0627 | 0.0641 | 0.0641 | – | 0.0628 | 0.0479 | 0.043 | 0.0349 | 0.0586 | – | –
S16M | 0.0607 | 0.0776 | 0.046 | 0.0689 | 0.07 | 0.063 | 0.0548 | 0.0769 | 0.0667 | 0.0592 | 0.0848 | 0.0747 | 0.0613 | 0.0681 | 0.0595 | 0.0479 | – | – | 0.0542
S16R | 0.0879 | 0.0792 | – | 0.0668 | 0.0766 | 0.0666 | 0.0681 | 0.0713 | 0.058 | 0.0626 | 0.0718 | 0.0637 | 0.0627 | 0.058 | 0.0633 | 0.0518 | – | – | 0.0714
S16T | 0.0624 | 0.0617 | 0.0629 | 0.0533 | – | 0.0672 | 0.0756 | 0.072 | 0.0545 | 0.0691 | – | – | 0.0644 | 0.057 | 0.0781 | 0.0674 | – | 0.075 | 0.065
S16Y | 0.071 | – | 0.0783 | 0.0581 | – | 0.0597 | 0.0623 | – | – | – | 0.0668 | – | 0.0811 | 0.064 | – | 0.0593 | 0.062 | – | 0.0605
S17W | 0.0774 | 0.0736 | 0.0712 | 0.0484 | 0.0533 | 0.0516 | 0.0489 | 0.0654 | 0.0526 | – | 0.0705 | 0.0652 | 0.0654 | 0.0567 | 0.0636 | 0.0572 | – | – | –
S18C | 0.0535 | 0.0421 | 0.074 | 0.0468 | 0.0697 | 0.0589 | – | 0.0702 | 0.0574 | 0.0671 | 0.0747 | – | 0.0563 | 0.0541 | 0.0752 | – | – | – | 0.0801
I19R | 0.0423 | 0.0431 | 0.0472 | 0.0444 | 0.0386 | 0.0428 | 0.0436 | 0.0644 | 0.059 | – | 0.0563 | 0.0439 | 0.051 | 0.0543 | 0.0404 | – | 0.062 | – | 0.081
